Source: ChEMBL document CHEMBL4888484, “Replenishing the malaria drug discovery pipeline: Screening and hit evaluation of the MMV Hit Generation Library 1 (HGL1) against asexual blood stage Plasmodium falciparum ,using a nano luciferase reporter read-out” (2022)
The campaign covered roughly 150,000 compounds. About 540 (0.36%) showed an effect of 50% or more. The list shows a part of the results.

Test system: Plasmodium falciparum
Experiment: Primary screen in NF54 nanoGlo assay, in single point, at 2uM, 72h; a lower Z score goes with more inhibition
Type: functional, Erythrocyte
Details: timepoint 72 hour

SMILES | % Inhibition | Z score
O=C(Cc1ccccn1)NCCN1CCCC[C@@H]1CO | -11% | 1.48
O=C(Nc1ccc(S(=O)(=O)N2CCOCC2)cc1)c1cc2c(s1)CCCC2 | 4% | -0.49
Cc1ccc(CN2c3ccc(F)cc3OC[C@@H]2CC(=O)N2CCCC2)cc1 | -6% | 0.87
Cc1noc(C)c1CCN[C@H](C)c1ccc(F)cc1Cl | 2% | -0.2
CC(C)=CCN1CC2(CCN(C(=O)c3ccc4cccnc4c3)CC2)CC1=O | -16% | 1.58
Cc1nn(C(C)C)c(C)c1CN1CCC[C@H](C(=O)c2cccc3ccccc23)C1 | -18% | 1.93
CCn1nccc1CNC1CCC2CN(Cc3ccccc3)CC21 (stereo not drawn) | 2% | -0.18
Nc1cc(C(=O)N2CCn3nc(CCC(=O)NC4CCCC4)cc3C2)n[nH]1 | 6% | -0.99
CC1=NN(CC(C)C)C(=O)[C@H]1C(=O)Nc1ccccc1 | -3% | 0.56
O=C1NCC[C@@H]1N1CCc2ccc(Br)cc21 | 1% | -0.17
CCC=C(C)C(=O)NCCCN1CCCC1 | 3% | -0.43
O=C(N[C@@H](Cc1c[nH]c2ccccc12)c1nnc2n1CCCCC2)c1cccs1 | -14% | 1.37
COc1ccc(C2=Nc3ccc(S(=O)(=O)N4CCOCC4)cc3S(=O)(=O)N2)cc1 | 38% | -5.56
O=C(Nc1ccc(Cl)cc1)N1CC=CCC1 | 2% | -0.48
CC(C)[C@H]1C=CCN1C(=O)c1cccc(-c2cnn(CC3CC3)c2)c1 | -17% | 1.71
O=C(C1CC1C1CC1)N1CCC2(CCC(O)CC2)CC1 (stereo not drawn) | -10% | 0.98
CCCn1cc(NC(=O)Cn2cc(-c3ccc4nc(C)[nH]c(=O)c4c3)cn2)nn1 | -16% | 2.31
COC(=O)N[C@@H](C)C(=O)N(C)Cc1ncon1 | 5% | -0.99
O=C(N[C@H]1C[C@H](c2ccc(F)cc2F)C1)c1coc(CO)c1 | -8% | 1.46
O=C(Nc1ccccc1Cl)c1cn(C[C@H](O)c2ccsc2)nn1 | -9% | 1.7
Cc1cc(C)n(CCC(=O)N2CCC3(CC2)C[C@@H](N(C)Cc2ccccc2)CCO3)n1 | -8% | 1.09
COc1ccc(F)cc1C(NC(=O)COc1ccccc1)[C@H]1C[C@@H](O)C1 (stereo partly drawn) | 33% | -3.59
Cn1cc2c(C(F)F)cc(=O)n(CCC(=O)Nc3ccccc3C#N)c2n1 | 32% | -3.62
CCN1C[C@H](NS(=O)(=O)c2ccnn2CC)[C@@H](OC)C1 | 10% | -1.38
Cc1nnc(CN(C)Cc2nc(-c3cc(F)ccc3F)oc2C)o1 | -15% | 2.02
CCN(CCOc1ccc(Cl)cc1)C(=O)c1ccc2nc(C)cn2c1 | 21% | -2.82
CC(=O)NC1CCN(Cc2cnc3c(-c4ccccc4)cnn3c2)CC1 | 4% | -0.82

SMILES | % Inhibition | Z score
CC1CN(CC(=O)N(C2CC2)C(C)C(C)C)CC(C)(C)O1 (stereo not drawn) | -18% | 3.38
CCn1nc(C)cc1C(=O)Nc1nc2ccc(Br)cn2n1 | -2% | 0.21
Cn1cc(S(=O)(=O)NC[C@@](O)(c2cccs2)C2CC2)cn1 | -18% | 3.15
C#CCNC(=O)[C@H](C)Oc1cccc(C)c1F | 19% | -2.21
COCCCN1CC(=O)N[C@@H]2CN(C(=O)c3cccc(C)n3)CC[C@@H]2OCc2cccc(c2)Oc2ccc(cc2OC)CCC1=O | -15% | 2.69
COc1ccc(N2CCN(C(=O)CN3CCN(C)C[C@@H]3C)CC2)cc1 | 1% | -0.11
CN(C(=O)CN1CCCCCC1=O)c1cccc2[nH]cnc12 | 7% | -1.23
CCC[C@]1(CO)CCN(Cc2ccsc2C(=O)O)C1 | -5% | 0.72
Cc1nsc2ccc(O)c(Br)c12 | -5% | 0.6
CC(C(=O)NCC1CCCO1)S(=O)(=O)c1ccc(F)c(Cl)c1 (stereo not drawn) | 15% | -1.98
Cc1ccc(NC(=O)c2ccc(S(=O)(=O)c3ccc(Cl)cc3)o2)cc1 | -11% | 1.51
CCOC1CC(NS(C)(=O)=O)C1(CC)CC (stereo not drawn) | 2% | -0.3
CC(C(=O)Nc1cc(C2CCCOC2)nn1C)c1cccs1 (stereo not drawn) | -4% | 0.55
CNC(=O)C1=CCN(C(=O)c2ccc(F)cc2F)CC1 | -4% | 0.72
O=S(=O)(c1ccc(F)cc1)N1CCC[C@](CC2CC2)(c2noc(-c3ccncc3)n2)C1 | 2% | -0.26
CNc1ncc(C(=O)Nc2ccc(OCc3cccnc3)cc2)s1 | -17% | 1.9
Cn1nnc2cc(-c3noc([C@H]4CC(=O)N(C5CCCC5)C4)n3)ccc21 | -18% | 1.66
CCNc1cc(CNC(=O)Nc2cc(CC)nn2C)ccn1 | 7% | -1.24
Cc1[nH]nc(-c2ccc(C(C)(C)C)cc2)c1NC(=O)COc1ccccc1 | -5% | 0.83
Cn1nccc1C=Cc1nc2cnccc2c(=O)[nH]1 | -14% | 2.2
C[C@@H](Cc1cccs1)C(=O)NCCC(=O)N1CCCCCC1 | -7% | 1.08
O=C(NCc1ccco1)[C@H]1CCC(F)(F)C1 | -11% | 1.54
CCc1ccccc1N(C)S(=O)(=O)c1cc(-c2c(C)nn3c2NC(=O)CCC3=O)ccc1OC | -9% | 1.05
COc1ccc(C(=O)N[C@H]2CC[C@]3(C)CCC([C@H](C)C(=O)N4CCC(C)CC4)[C@H](O)[C@H]3[C@@H]2C)cc1 (stereo partly drawn) | -7% | 1.04
CCCOc1ccnc(CC(=O)NCc2nccs2)n1 | -2% | 0.28
CCN(CC)CC(=O)Nc1ccc(S(N)(=O)=O)cc1 | -7% | 0.95
CC(C)(C)CC(C)(C)Nc1c(-c2ccccn2)nc2ccc(Br)cn12 | 17% | -2.11
